Records with an inconclusive call do not appear. The call rests on the fitted dose curve; in most records, active means well fitted cell-killing curve with a large enough effect; inconclusive means small, poorly fitted or top-dose-only effect; inactive means no such curve, though single readings can be large or run the other way. Where a structure was tested more than once in an assay, its records may differ in their call. The source holds more than one record for some entries. This is not the full list of results. The source may hold further records. Results that share an entry are repeats (runs, samples, wells, individuals or studies). Brackets tell where a record comes from. A, B and so on number the origins entry by entry.
Experiment: qHTS of pediatric cancer cell lines to identify multiple opportunities for drug repurposing: Primary screen for A673 cells (AID 1347092); further: nearly all actives have a fitted effect of over 45% in size
Conditions: A673 Ewing sarcoma viability, CellTiter-Glo ATP luminescence, 48 h; series mostly up to 46 µM
Description: Drug repurposing or repositioning has been offered as a strategy for drug development in oncology programs. This approach has special potential for childhood cancers and other rare or orphan diseases, where the expected return on new drug development has been a disincentive to pharmaceuticals. […] In this project we exploit the poly-pharmacology of drugs to discover new indications via phenotypic screening of a panel of 19 well-characterized cell lines derived from solid tumors seen in children and adolescents. The goal is to identify approved drugs with previously unrecognized anticancer properties that has the potential to reveal new mechanisms and biological processes involved in carcinogenesis or drug resistance. We employed a titration-based paradigm (quantitative high-throughput screening or qHTS), where all compounds were tested at multiple concentrations for their effect on cell viability. Concentration-response curves (CRCs) were derived directly from the primary screen, and both potency and efficacy values were used to identify compounds with robust bioactivity profiles. We screened the NIH Chemical Genomics Center (NCGC) Pharmaceutical Collection (NPC) and Mechanism Interrogation Plate (MIPE) small molecule collections of approved and investigational compounds against these cell lines; and measured metabolically active cells after 48 hours of compound treatment as a proxy for cell viability. […] Assay Submitter: Nathalia J. Martinez, National Center for Advancing Translational Sciences, National Institutes of Health, Rockville, MD, USA; email: natalia.martinez@nih.gov. Shen, M et al. Quantitative high-throughput phenotypic screening of pediatric cancer cell lines identifies multiple opportunities for drug repurposing. Oncotarget 2017 Dec 19;9(4):4758-4772. PMID 29435139.
The cells were obtained from University of North Carolina (UNC), Pediatric Preclinical Testing Program (PPT), and Coriell Institute (CI). qHTS cell viability assay: Cells were assayed in growth media at a density of 500-1,000 cells/well. Five microliters of cells were dispensed into 1,536-well, white, solid-bottom, TC-treated plates (Greiner Bio One) using a multidrop dispenser and incubated at 37 degrees C, 5% CO2, under a humidified atmosphere for 5 hours. Twenty-three nanoliters of compounds and controls (neutral control DMSO or positive control bortezomib at final concentration of 2.3 uM) were subsequently transferred by Kalypsys pintool. For primary screens, the MIPE collection was tested at 11-point dilutions (final concentrations range from 0.78 nM to 46 µM) and the NPC collection at 8-point dilutions (final concentrations range from 0.59 nM to 46 µM). Compounds tested in follow-up screens were assayed at 11-point dilutions. Cells were incubated for 48 hours, followed by addition of 3 uL of CellTiter-Glo (Promega). After a 15min incubation at room temperature, samples were analyzed for luminescence intensity using a ViewLux High-throughput CCD imager equipped with clear filters.
Potency means the concentration at half of the fitted maximal effect.

Compound | Potency
CC(C(=O)O)c1cccc(C(=O)c2ccccc2)c1 (centres undefined) | inactive [sample A] and active: 14.8 µM [sample B]
Nc1nc2c(ncn2COC(CO)CO)c(=O)[nH]1 | active: 18.7 µM [sample A] and inactive [sample B]
CC(C)(Oc1ccc(C2CC2(Cl)Cl)cc1)C(=O)O (centres undefined) | active: 10.8 µM [sample A] and inactive [sample B]
NC(=O)NO | inactive [sample A] and active: 2.35 µM [sample B]
CC1COc2c(N3CCN(C)CC3)c(F)cc3c(=O)c(C(=O)O)cn1c23 (centres undefined) | inactive [sample A] and active: 18.7 µM [sample B]
COc1ccc2c(c1)c(CC(=O)O)c(C)n2C(=O)c1ccc(Cl)cc1 | inactive [sample A] and active: 14.8 µM [sample B]
NC12CC3CC(CC(C3)C1)C2 | active: 2.96 µM [sample A] and inactive [sample B]
CCC1(c2ccccc2)C(=O)NCNC1=O | active: 9.35 µM [sample A] and inactive [sample B]
CC12CC3CC(C)(C1)CC(N)(C3)C2 | active: 1.18 µM [sample A] and inactive [sample B]
Cc1cn([C@H]2C[C@H](N=[N+]=[N-])[C@@H](CO)O2)c(=O)[nH]c1=O | active: 372 nM [sample A] and inactive [sample B]
Cn1cnc2c1c(=O)[nH]c(=O)n2C | inactive [sample A] and active: 18.7 µM [sample B]
CC(COc1ccccc1)N(CCCl)Cc1ccccc1 (centres undefined) | inactive [sample A] and active: 9.35 µM [sample B]
OCCN(CCO)c1nc(N2CCCCC2)c2nc(N(CCO)CCO)nc(N3CCCCC3)c2n1 | active: 29.6 µM [sample A] and inactive [sample B]
CN1CCC(=C2c3ccccc3CC(=O)c3sccc32)CC1 | active: 14.8 µM [sample A] and inactive [sample B]

Reference: PubChem BioAssay (NCATS)
